Source: PubChem BioAssay AID1159614 (National Center for Advancing Translational Sciences (NCATS), 2016)
Out of some 45,000 compounds screened, about 65 (0.1%) were called active. Calls come from the whole dose curve; as a rule, active = well fitted activation curve with a large enough effect; inconclusive = small, poorly fitted or top-dose-only effect; inactive = no such curve, though single readings can be large or run the other way. The list shows a part of the results.

Target: Galactocerebrosidase (Homo sapiens) (UniProt P54803)
Chain of UniProt P54803 (P54803 whole entry, looked up): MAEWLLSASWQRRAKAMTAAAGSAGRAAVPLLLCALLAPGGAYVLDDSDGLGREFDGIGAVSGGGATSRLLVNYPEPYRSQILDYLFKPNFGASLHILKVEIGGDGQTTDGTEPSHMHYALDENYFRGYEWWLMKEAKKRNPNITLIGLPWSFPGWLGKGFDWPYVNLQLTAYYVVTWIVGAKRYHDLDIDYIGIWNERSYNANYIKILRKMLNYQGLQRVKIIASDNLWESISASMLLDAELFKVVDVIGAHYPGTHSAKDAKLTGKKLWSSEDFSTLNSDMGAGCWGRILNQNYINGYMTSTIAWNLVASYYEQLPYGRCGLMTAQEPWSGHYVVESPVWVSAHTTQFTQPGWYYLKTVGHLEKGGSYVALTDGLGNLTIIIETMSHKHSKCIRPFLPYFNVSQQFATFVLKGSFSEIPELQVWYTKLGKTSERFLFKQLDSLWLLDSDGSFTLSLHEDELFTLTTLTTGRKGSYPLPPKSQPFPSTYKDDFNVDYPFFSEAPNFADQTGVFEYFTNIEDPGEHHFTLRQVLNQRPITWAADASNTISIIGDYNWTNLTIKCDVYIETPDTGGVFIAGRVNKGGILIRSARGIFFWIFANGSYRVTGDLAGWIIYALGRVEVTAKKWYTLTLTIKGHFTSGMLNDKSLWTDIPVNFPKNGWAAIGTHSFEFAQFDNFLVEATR
Test: A Novel Cell-Based Assay to Identify Small Molecules for B -Galactocerebrosidase; note: 0% is about no effect; nearly all actives have a fitted effect of over 65% in size
Settings: 145M-Twi-hGALC-G270D cells (Twitcher mouse brain line with human GALC G270D), HMU-beta-Gal fluorescence, 48 h; series mostly up to 57.5 µM; activation: at the top concentration
Procedure, shortened: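 Live 145M-Twi cells (Twitcher mouse brain-derived, GALC-null) stably expressing human GALC-G270D, with a wild-type GALC line, were compound-treated. Residual GALC activity was then read as fluorescence from 0.1 mM final HMU-β-gal at pH 5.2; higher signal means activation.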

activation, inactive:
COc1cc(Cl)c(NS(=O)(=O)c2ccc(-c3coc(C)n3)cc2)c(OC)c1 -38.5%
Cc1ccc(-c2cc(C(F)(F)F)c(C#N)c(SCC(=O)Nc3ccccc3F)n2)cc1 -24%
CCN(c1ncnc2c1cnn2-c1cccc(Cl)c1)C1CCCCC1 -13.8%
Cc1ccc(-n2c(=O)c3ccccc3n(CC(=O)Nc3cccc(C(F)(F)F)c3)c2=O)cc1 -5.11%
Cc1cccc(N2CCN(C(=O)c3nn(C)c4c3CS(=O)(=O)c3ccccc3-4)CC2C)c1 (centres undefined) -12.3%
CCN(Cc1ccccc1)C(=O)C(CC(C)C)NS(=O)(=O)c1ccc2c(c1)CCN2C(C)=O (centres undefined) -0.904%
O=C(Nc1ccc2nc(SCC(=O)N3CCOCC3)sc2c1)c1ccc(Cl)cc1 -12.6%
O=C(c1ccccc1)N1CCCCC1CCN1CCCCC1 (centres undefined) -11.7%
Cc1ccc(C)c(Nc2nn3c(=O)c4ccc(C(=O)NCc5cccs5)cc4nc3s2)c1 -12.7%
COc1cccc(N2CCN(c3ncnc4onc(-c5ccc(Cl)cc5)c34)CC2)c1 -26.2%
CN(C1CCCCC1)S(=O)(=O)c1ccc2c(c1)c(=O)c(C(=O)NCc1ccc(Cl)cc1)cn2C -12.9%
O=C(CN1C(=O)CC(c2ccc(F)cc2)=Nc2ccccc21)NCc1ccccc1Cl -15.4%
O=C(Cn1c(=O)n(-c2ccccc2)c(=O)c2sc3ccccc3c21)NC1CCCC1 -8.33%
N#C/C(=C\c1ccc(Cl)cc1)c1nc(-c2cc3c(ccc4ccccc43)oc2=O)cs1 -2.3%
Cc1ccc(OCC(=O)Nc2ccc(S(=O)(=O)N(Cc3ccccc3)c3ccccc3)cc2)cc1 -37.9%
CCCCn1cc(S(=O)(=O)c2ccc(Cl)cc2)c(=O)c2cc(F)c(N3CCCCC3)cc21 0.14%
Cn1c(SCc2ccc(F)cc2)nc2ccc(C(=O)NCc3ccccc3)cc21 -24.6%
Cc1cc(C)c2oc(C(=O)Nc3c(C(=O)Nc4ccccc4)oc4ccccc34)cc(=O)c2c1 -4.48%
O=C(C1CCN(c2nc3ccccc3[nH]2)CC1)N1CCN(c2cccc(Cl)c2)CC1 -19.5%
Cc1cc(C(C)(C)C)c(O)c(C)c1CC1=NCCN1 -12.4%
CSC1=NC2(CCN(C(=O)NC3CCCCC3)CC2)N=C1c1ccc(C(C)(C)C)cc1 -11.4%
COc1cccc(N2C(=O)CSC23C(=O)N(CC(=O)NCc2ccc(C)cc2)c2ccccc23)c1 (centres undefined) -22.4%
NC(Cc1ccc(Cl)cc1)C(=O)O (centres undefined) -16.8% [at 0.46 µM]
CCc1ccc2occ(CC(=O)Nc3sc4c(c3C(=O)OC)CCC4)c2c1 -14.9%
Cc1nc2ccc(S(=O)(=O)NC(C(=O)NCc3ccc(Cl)cc3)C(C)C)cc2s1 (centres undefined) 7.69%
CCOC(=O)c1c(-c2ccc(OC)c(OC)c2)csc1NC(=O)c1ccc(F)cc1 -12.4%
Cc1cccc(C(=O)Nc2ccccc2C(=O)OCc2cc(=O)n3nc(C4CC4)sc3n2)c1 -17.1%
CC(C)c1ccc(NC(=O)C2CCCN(S(=O)(=O)c3ccc4[nH]c(=O)ccc4c3)C2)cc1 (centres undefined) -15.6%
CCc1ccc(Cn2nnc(C(=O)Nc3ccc(C)cc3)c2N)cc1 3.43%
CN(C)CCCN1c2ccccc2Sc2ccccc21 -11.9%
Cc1ccc(Nc2c(-c3ccc(N4CCOCC4)cc3)nc3ncccn23)cc1C -14.2%
COc1cc(NC(=O)Cn2cnc3sc(C)c(S(=O)(=O)N4CCN(C)CC4)c3c2=O)cc(OC)c1OC -8.6%
CCOC(=O)c1ccc2c(c1)N(CC(=O)Nc1ccc(CC)cc1)C(=O)c1ccccc1S2 -25.5%
COc1cccc(CNCCSc2nnnn2C)c1OCc1ccc(Cl)cc1 17.5%
CCCN(CCC)CCCNC(=O)c1cn(CC)c2ccc(S(=O)(=O)N3CCc4ccccc4C3)cc2c1=O -3.54%
O=C(CSc1oc(-c2ccco2)nc1S(=O)(=O)c1ccccc1)c1ccc(Cl)cc1 -25.8%
CCN(c1ccc(C)cc1C)S(=O)(=O)c1nnc(NC(=O)c2ccccc2OC)s1 -16.2%
CCOC(=O)c1oc2ccc(S(=O)(=O)n3nc(-c4cc(OCC)c(OCC)c(OCC)c4)cc3N)cc2c1C -22.5%
CCOC(=O)c1ccc(NC(=O)CC2C(=O)N(c3ccccc3)C(=O)N2C2CCCCC2)cc1 (centres undefined) -18.5%
CCOc1cccc(C(=O)Nc2ccc(NC(=O)c3ccc(Br)cc3)cc2)c1 -10.5%
CCCc1cnc2c(c1SCC(=O)Nc1cccc(C)c1C)c(=O)n(C)c(=O)n2C -12.2%
CCOc1ccc(-c2nonc2NC(=O)COc2ccccc2)cc1 -10.5%
CCc1ccc(N2CCn3c2nc2c3c(=O)n(CCCc3ccccc3)c(=O)n2C)cc1 -9.11%
CCOC(=O)c1ccc(NC(=O)c2c(NCc3cc(OC)c(OC)cc3OC)sc3c2CCCC3)cc1 -15.3%
CCN1CCN(c2cc3c(cc2F)c(=O)c(S(=O)(=O)c2cc(C)cc(C)c2)cn3CC)CC1 -5.67%
COc1ccc(-n2cc(-c3ccccc3)c3c(NCCc4ccc(OC)c(OC)c4)ncnc32)cc1 -0.0032%
NS(=O)(=O)c1cc(C(=O)O)cc(N2CCCC2)c1Oc1ccccc1 -10%
COc1ccc(CNC(=O)CN(c2ccc(OC)cc2)S(=O)(=O)c2c(C)[nH]c(=O)[nH]c2=O)cc1 -10.1%
O=C(CC1(O)C(=O)N(Cc2ccccc2)c2ccc(Br)cc21)c1ccccc1 (centres undefined) -6.27%
O=C(Cc1ccccc1F)N1CCC(c2nc3c(nnn3Cc3cccc(Cl)c3)c(=O)[nH]2)CC1 -0.837%
Cc1cc(C)cc(OCCn2c(CCNC(=O)C3CCCCC3)nc3ccccc32)c1 -18.6%
Cc1ccc(-n2c(-c3ccco3)nc3c(cnn3-c3ccc(C)cc3)c2=O)cc1 0.59%
O=C(NCCCCc1ccccc1)c1nn(-c2ccccc2)nc1CO 1%
Cn1c(=O)oc2cc(S(=O)(=O)N3CCCC(C(=O)N4CCN(c5cccc(Cl)c5)CC4)C3)ccc21 (centres undefined) -5.28%
CC1=C(C(=O)OCC2CCCCC2)C(c2cccc(F)c2F)CC(=O)N1 (centres undefined) -11.6%
COc1ccc(NC(=O)Cn2nnc(C(=O)Nc3ccc(C)c(F)c3)c2N)cc1Cl -10.4%
CCOc1ccc(NC(=O)CC2C(=O)N(c3ccc(C)cc3)C(=O)N2Cc2ccc(OC)cc2)cc1 (centres undefined) -12.7%
CCC(=O)N1CCc2cc(Br)cc(S(=O)(=O)N(CC)Cc3ccccc3)c21 -12.3%
COc1ccc(OC)c(NC(=O)N(C)CCc2c(C)nn(C)c2C)c1 -10.4%
CCOc1ccc(NC(=O)c2c(NC(=O)c3ccccc3Br)sc3c2CCC(C)C3)cc1 (centres undefined) -18.7%
CCOc1ccc(S(=O)(=O)NCC(c2ccc(N(C)C)cc2)N2CCc3ccccc32)cc1 (centres undefined) 12%
CCCCN(C)S(=O)(=O)c1cc(-c2cc(C)no2)ccc1C -26.8%
COC(=O)CSc1ccc2nnc(CCNS(=O)(=O)c3ccccc3)n2n1 0.71%
Cc1cc(-c2nc3ncccc3o2)ccc1NC(=O)c1ccc(Cl)cc1 1.73%
Cc1ccc(-c2nc3ncccc3o2)cc1NC(=O)c1ccc(-c2cccc(Cl)c2C)o1 -2.46%
CCc1cccc(C)c1NC(=O)c1cn2c3c(ccc(Cl)c3c1=O)OC(C)C2 (centres undefined) -21.3%
Cc1cccc(N2CCN(c3ncnc4onc(C)c34)CC2C)c1 (centres undefined) -18%
Cc1nc(-c2cccc(F)c2)sc1CCNC(=O)C(=O)Nc1ccc2c(c1)OCO2 -2.83%
O=C(Nc1ccc(F)c(Cl)c1)N1CCC(CN2CCc3ccccc3C2)CC1 -10.6%
CC(C)(C(=O)O)c1ccc(C(O)CCCN2CCC(C(O)(c3ccccc3)c3ccccc3)CC2)cc1 (centres undefined) -14.1%
Cc1cccc(-c2nc3ccccc3n3c(-c4ccccc4)c4c(=O)n(C)c(=O)n(C)c4c23)c1 -11.8%
COc1ccccc1-c1cc2nc(C)c(CCC(=O)Nc3cc(C)ccc3C)c(C)n2n1 -7.41%
CCc1cccc(NC(=O)c2ccc(CNS(=O)(=O)c3ccc4c(c3)C(C)(C)C(=O)N4C)cc2)c1 -4.5%
Cc1ccc(-n2ncc3c(NCC(C)C)ncnc32)c(C)c1 -6.49%
CCc1ccc(NC(=O)Cn2cnc3sc(C)c(S(=O)(=O)N4CCN(c5ccccc5OC)CC4)c3c2=O)cc1 -13.2%
Cc1cccc(CCNC(=O)C2CCN(c3nc4ccccc4nc3C(F)(F)F)CC2)c1 -17.6%
CCC(C)NC(=O)CCc1c(C)nc2cc(-c3ccc(OC)cc3OC)nn2c1C (centres undefined) -1.42%
O=C(Nc1ccc(C(=O)N2CCN(c3ccccc3)CC2)cc1)c1nsc2ccccc12 -20.3%
CCOC(=O)c1cnc2ccc(Cl)cc2c1Nc1ccc(N2CCOCC2)cc1 -17.3%
CCCN(CCC)CCNC(=O)C1CCN(c2nc3ccc(CC)cc3s2)CC1 -23.9%
O=C(CSc1nc2c(c(=O)[nH]1)CN(Cc1ccc3c(c1)OCO3)CC2)Nc1ccc(F)c(F)c1 -18.8%
Cc1oc(-c2ccccc2F)nc1CSc1nnc(C)n2c1cc1occc12 -20.8%
COc1ccc(-n2nnc(-c3nc(-c4cccs4)no3)c2N)cc1 -21.5%
Cc1ccc(C)c(NC(=O)Nc2cccc(-c3cn4cccnc4n3)c2)c1 -3.47%
COC(=O)c1ccccc1-n1cc2c(c1-c1cccc(C)c1)c(=O)n(C)c(=O)n2C -23.6%
CCc1ccccc1NC(=O)C(=O)NCCc1sc(-c2cccc(F)c2)nc1C -12.3%
Cc1ccc(S(=O)(=O)N2CCC(n3c(C)nc4cccnc43)CC2)c(C)c1 -15.6%
CCOc1ccc(CCNC(=O)c2cc3sc(CC)cc3n2C)cc1OCC -23.7%
Cc1ccc(S(=O)(=O)c2cn(Cc3ccc(F)cc3)c3cc(N4CCCC4)c(F)cc3c2=O)cc1 -4.67%
Cc1[nH]c2ccccc2c1SCCNC(=O)c1ccccc1F -35.7%
CCOC(=O)C1CCCN(C(=O)c2[nH]c3ccccc3c2Sc2ccc(Cl)cc2)C1 (centres undefined) 10.1%
CC(C)Oc1ccc(CNC(=O)Cn2ncn3nc(-c4cccs4)cc3c2=O)cc1 -14.5%
O=C(NCc1ccccc1Cl)c1cc2cccc3c2n1CCS3 -0.969%
COc1cccc(CNC(=O)c2ccc3c(c2)nc2n3CCC(C)C2)c1OC (centres undefined) -6%
